Laboratory results published in publication PMC5451543.
Residue numbers refer to the chain shown, from its start. No constants are given. Whether binding was seen depends on the method and setting. Binding seen in cells or lysates may run through a third protein. Some entries that bind do so weakly or less than the wild type. For some assays here: Sequences can lack the tags named with a protein.

Sequences of proteins named here, by UniProt entry; tags and fusion partners are left off.
UniProt O00487: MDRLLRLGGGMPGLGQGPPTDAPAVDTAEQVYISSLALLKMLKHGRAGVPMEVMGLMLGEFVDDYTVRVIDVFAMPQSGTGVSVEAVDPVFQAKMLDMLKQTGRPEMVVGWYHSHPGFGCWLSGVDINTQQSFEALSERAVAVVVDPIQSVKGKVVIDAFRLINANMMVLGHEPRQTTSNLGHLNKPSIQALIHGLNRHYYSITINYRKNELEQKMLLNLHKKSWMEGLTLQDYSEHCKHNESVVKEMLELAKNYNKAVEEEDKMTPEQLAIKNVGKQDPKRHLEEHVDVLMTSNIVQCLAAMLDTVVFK
UniProt Q9BRP4: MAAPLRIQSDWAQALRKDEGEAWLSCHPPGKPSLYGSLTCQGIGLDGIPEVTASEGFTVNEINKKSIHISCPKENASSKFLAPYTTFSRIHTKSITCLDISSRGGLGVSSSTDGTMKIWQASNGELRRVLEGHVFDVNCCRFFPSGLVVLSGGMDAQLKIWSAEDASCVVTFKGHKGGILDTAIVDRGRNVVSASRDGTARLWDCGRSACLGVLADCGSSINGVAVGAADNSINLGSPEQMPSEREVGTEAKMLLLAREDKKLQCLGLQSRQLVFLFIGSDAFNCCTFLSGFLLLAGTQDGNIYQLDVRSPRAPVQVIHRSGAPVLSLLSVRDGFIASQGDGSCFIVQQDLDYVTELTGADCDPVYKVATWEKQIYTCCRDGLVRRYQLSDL
UniProt P55036: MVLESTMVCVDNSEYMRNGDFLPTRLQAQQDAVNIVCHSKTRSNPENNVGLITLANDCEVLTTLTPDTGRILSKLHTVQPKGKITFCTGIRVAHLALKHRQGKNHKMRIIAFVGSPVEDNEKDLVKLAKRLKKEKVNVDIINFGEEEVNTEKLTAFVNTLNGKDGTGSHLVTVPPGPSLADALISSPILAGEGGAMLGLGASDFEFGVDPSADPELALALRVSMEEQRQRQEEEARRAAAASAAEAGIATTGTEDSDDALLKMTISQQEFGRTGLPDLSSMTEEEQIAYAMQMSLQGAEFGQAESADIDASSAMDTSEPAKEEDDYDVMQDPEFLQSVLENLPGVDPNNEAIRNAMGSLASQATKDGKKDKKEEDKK
UniProt Q13200: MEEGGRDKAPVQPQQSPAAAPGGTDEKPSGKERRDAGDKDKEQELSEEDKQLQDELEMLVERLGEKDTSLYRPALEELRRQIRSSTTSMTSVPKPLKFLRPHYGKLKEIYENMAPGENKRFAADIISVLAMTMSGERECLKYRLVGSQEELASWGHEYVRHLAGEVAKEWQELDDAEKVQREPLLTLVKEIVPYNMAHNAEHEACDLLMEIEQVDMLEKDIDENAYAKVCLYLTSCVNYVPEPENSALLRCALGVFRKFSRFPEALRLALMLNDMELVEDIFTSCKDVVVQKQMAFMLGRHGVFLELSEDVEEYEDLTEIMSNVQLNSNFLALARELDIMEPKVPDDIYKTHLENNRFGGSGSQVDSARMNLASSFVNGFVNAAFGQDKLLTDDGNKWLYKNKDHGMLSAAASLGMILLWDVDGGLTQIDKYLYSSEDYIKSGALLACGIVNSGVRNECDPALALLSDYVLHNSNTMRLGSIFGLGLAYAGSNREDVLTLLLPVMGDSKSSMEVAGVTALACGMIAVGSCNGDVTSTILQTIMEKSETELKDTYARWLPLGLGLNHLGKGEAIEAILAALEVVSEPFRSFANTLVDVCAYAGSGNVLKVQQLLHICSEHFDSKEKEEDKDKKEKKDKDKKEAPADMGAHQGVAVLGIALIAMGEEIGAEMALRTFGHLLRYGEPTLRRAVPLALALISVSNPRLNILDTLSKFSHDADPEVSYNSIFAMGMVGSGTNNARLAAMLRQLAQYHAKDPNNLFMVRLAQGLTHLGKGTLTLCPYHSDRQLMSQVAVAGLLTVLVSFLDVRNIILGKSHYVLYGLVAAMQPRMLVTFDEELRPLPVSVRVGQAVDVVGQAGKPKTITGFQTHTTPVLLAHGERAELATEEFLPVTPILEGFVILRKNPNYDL
UniProt P35998: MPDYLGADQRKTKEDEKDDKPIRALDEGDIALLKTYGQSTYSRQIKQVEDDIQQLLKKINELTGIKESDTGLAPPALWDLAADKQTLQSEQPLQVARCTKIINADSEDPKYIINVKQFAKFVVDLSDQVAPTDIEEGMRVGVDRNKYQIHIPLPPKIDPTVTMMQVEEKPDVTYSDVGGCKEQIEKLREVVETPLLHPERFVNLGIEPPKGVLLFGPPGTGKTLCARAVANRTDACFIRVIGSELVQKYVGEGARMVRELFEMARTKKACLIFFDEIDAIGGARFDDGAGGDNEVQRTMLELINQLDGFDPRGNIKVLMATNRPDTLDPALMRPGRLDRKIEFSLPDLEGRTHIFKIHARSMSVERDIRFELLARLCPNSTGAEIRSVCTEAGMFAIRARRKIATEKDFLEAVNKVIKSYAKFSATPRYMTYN
UniProt P62191: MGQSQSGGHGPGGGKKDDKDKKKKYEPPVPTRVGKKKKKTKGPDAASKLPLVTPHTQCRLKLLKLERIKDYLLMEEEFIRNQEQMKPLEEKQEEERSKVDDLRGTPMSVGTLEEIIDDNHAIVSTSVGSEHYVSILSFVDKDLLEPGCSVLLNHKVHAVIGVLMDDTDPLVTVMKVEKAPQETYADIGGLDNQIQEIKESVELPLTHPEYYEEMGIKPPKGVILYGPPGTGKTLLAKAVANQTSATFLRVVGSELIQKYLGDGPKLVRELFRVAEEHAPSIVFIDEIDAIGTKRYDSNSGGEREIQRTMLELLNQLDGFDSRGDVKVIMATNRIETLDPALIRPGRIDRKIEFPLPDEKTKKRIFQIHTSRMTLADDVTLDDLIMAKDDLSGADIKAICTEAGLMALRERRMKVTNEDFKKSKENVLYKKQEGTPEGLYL
UniProt P62195: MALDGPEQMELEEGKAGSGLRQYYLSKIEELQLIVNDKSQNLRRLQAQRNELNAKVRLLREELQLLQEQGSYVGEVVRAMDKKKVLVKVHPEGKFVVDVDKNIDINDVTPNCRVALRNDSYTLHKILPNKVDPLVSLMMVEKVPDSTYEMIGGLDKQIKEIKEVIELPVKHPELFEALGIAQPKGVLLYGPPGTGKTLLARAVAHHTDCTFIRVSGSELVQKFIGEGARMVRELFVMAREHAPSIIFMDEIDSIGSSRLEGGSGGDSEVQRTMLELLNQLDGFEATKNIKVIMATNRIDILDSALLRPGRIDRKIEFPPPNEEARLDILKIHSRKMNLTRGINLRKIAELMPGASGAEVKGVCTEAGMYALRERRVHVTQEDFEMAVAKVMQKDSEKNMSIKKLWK
UniProt Q16401: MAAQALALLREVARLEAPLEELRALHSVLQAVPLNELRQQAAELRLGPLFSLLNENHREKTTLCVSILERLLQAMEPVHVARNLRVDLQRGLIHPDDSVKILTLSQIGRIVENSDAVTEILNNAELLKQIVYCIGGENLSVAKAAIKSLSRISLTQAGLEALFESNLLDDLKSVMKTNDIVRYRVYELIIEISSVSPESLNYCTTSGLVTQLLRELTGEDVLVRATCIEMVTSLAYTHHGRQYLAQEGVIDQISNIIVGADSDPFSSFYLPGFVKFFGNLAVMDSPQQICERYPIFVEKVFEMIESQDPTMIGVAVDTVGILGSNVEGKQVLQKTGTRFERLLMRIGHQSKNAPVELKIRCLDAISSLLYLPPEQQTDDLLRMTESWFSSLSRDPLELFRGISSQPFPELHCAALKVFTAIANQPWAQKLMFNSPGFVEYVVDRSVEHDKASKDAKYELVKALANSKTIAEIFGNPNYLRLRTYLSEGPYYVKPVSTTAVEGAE

What was measured:
[1] = target: T1, GST-DDAA (human) (UniProt Q8WVY7); assay: pull-down; GST fusion protein purified from E. coli with in vitro translated FLAG-tagged protein from rabbit reticulocyte lysate; bound protein detected with anti-FLAG antibody; only the target purified
T1 sequence: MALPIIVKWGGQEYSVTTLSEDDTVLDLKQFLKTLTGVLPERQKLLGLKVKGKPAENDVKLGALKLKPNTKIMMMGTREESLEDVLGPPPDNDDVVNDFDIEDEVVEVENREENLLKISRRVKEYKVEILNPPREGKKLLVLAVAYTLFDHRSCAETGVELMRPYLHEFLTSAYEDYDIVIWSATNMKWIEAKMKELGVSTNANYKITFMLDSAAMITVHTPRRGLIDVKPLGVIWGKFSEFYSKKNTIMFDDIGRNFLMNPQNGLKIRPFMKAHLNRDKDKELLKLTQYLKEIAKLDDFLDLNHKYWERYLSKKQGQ

[2] = target: T2, GST-UBLCP1 (human) (UniProt Q8WVY7); assay: as above
T2 sequence: T1 sequence with A143D, A145D

[3] = target: T3, GST-UBL (human) (UniProt Q8WVY7); assay: as above
T3 sequence: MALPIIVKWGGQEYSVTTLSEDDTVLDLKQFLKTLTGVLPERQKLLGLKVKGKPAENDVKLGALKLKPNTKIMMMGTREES

[4] = target: T4, GST-ΔUBL (human) (UniProt Q8WVY7); assay: as above
T4 sequence: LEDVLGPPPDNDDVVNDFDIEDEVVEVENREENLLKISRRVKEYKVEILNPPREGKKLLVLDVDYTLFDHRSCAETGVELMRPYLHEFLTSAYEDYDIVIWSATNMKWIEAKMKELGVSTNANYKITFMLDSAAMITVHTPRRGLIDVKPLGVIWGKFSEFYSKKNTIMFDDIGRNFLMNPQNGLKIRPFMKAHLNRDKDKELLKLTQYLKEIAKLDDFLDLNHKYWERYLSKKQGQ

[5] = target: HTBH-tagged Rpn11 (UniProt O00487); assay: pull-down; streptavidin–agarose pull-down of HTBH-tagged Rpn11 from stable HEK293T cells co-transfected with FLAG-tagged subunits or chaperones and HA-UBLCP1 or HA-DDAA; western blot
[6] = target: FLAG-PAAF1 (human) (UniProt Q9BRP4); assay: co-IP; HEK293T co-transfected with tagged proteins; FLAG lysis buffer (300 mM NaCl, 25 mM Tris–HCl pH 7.5, 2 mM EDTA, 1% Triton X-100); IP with anti-FLAG antibody, western blot; some panels with UBLCP1 knockout, siRpn1 or HA-Rpn1 overexpression
[7] = target: FLAG-Rpn10 (human) (UniProt P55036); assay: as above
[8] = target: T5, FLAG-p27 (human) (UniProt O00233); assay: as above
T5 sequence: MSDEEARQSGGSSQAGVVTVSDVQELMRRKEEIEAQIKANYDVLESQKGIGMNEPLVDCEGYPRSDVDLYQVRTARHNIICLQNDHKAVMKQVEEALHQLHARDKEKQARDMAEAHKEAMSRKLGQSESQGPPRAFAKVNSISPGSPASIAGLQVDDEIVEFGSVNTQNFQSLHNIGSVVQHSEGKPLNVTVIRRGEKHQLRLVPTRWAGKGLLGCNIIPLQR

[9] = target: T6, endogenous UBLCP1 (human (endogenous in HEK293T)) (UniProt Q8WVY7); assay: co-IP; endogenous proteins; HEK293T lysates, IP with anti-UBLCP1 antibody or control rabbit IgG
T6 sequence: T1 sequence with A143D, A145D

| Substance | binding [1] | binding [2] | further results |
| --- | --- | --- | --- |
| FLAG-PAAF1, in vitro translated (from UniProt Q9BRP4 1-392) | binds weakly | binds weakly |  |
| FLAG-Rpn1, in vitro translated (from UniProt Q13200 1-908) | binds | binds | binding [3]: binds; binding [4]: no binding |
| FLAG-Rpt1 (from UniProt P35998 1-433) |  |  | binding [5]: binds |
| FLAG-Rpt1, in vitro translated (from UniProt P35998 1-433) | binds weakly | binds weakly |  |
| FLAG-Rpt2, in vitro translated (from UniProt P62191 1-440) | binds weakly | binds weakly |  |
| FLAG-Rpt3, in vitro translated (from UniProt P43686 1-418) | binds weakly | binds weakly |  |
| FLAG-Rpt6, in vitro translated (from UniProt P62195 1-406) | binds weakly | binds weakly |  |
| FLAG-S5b (from UniProt Q16401 1-504) |  |  | binding [5]: binds |
| HA-Rpt1 (from UniProt P35998 1-433) |  |  | binding [6]: binds; binding [7]: binds; binding [8]: binds |
| endogenous Rpn1 (from UniProt Q13200 1-908) |  |  | binding [9]: binds |
